# The list shows a part of the results. At the low end of the ranking the order means little.
# Biological target: T1, GST-Rok (full length) (UniProt O34857)
# T1 sequence: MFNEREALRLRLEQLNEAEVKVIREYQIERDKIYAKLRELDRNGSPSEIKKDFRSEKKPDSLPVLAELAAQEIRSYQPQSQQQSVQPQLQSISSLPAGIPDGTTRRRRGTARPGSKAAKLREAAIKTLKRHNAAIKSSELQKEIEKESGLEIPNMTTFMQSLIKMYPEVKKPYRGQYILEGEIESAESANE
# Assay: protein binding microarray;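 further: rank score from −0.5 (least bound) to 0.5 (best bound)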
# Settings: Rok is a gene silencer of Bacillus subtilis; high values mean tight binding; most listed sequences are background and not binding sites; double strand, one strand shown
row,Sequence,binding signal
1,AGACGGTC,-0.237 E-score
2,CCATTCCA,-0.0973 E-score
3,CAGAAAAC,0.0354 E-score
4,CCTGTCAA,0.0429 E-score
5,AGACAGCT,-0.205 E-score
6,AAGAAACT,0.185 E-score
7,CAATGGCG,-0.225 E-score
8,AAAGGGTC,-0.102 E-score
9,GGTCGGAA,-0.0909 E-score
10,GCCTGGAC,-0.239 E-score
11,CTACCCAA,0.121 E-score
12,TACATCAA,0.151 E-score
13,AAGGATGT,-0.0292 E-score
14,CGGTCCAG,-0.167 E-score
15,AGTCATGC,-0.144 E-score
16,AGAATCAT,0.221 E-score
17,ATTCGCGC,-0.0696 E-score
18,AGGGGGTG,-0.405 E-score
19,AGTCTTGG,-0.136 E-score
20,GATACTAC,0.278 E-score
21,ATTCACTC,-0.0701 E-score
22,GATTTGGC,-0.0885 E-score
23,GTCGGGTA,-0.153 E-score
24,CTATGGTA,0.258 E-score
25,CCTGACCC,-0.381 E-score

row,Sequence,binding signal
1,ATAAACAA,0.0341 E-score
2,ACAGAGGT,-0.0355 E-score
3,CCGTCCCA,-0.185 E-score
4,AATATCCA,0.188 E-score
5,CTTGGTAC,0.0213 E-score
6,TTAAAAAA,-0.246 E-score
7,ATTAAGTC,0.0423 E-score
8,GCGGTTCC,-0.0313 E-score
9,AGGAAGAC,-0.105 E-score
10,GAGGCATA,-0.016 E-score
11,ATTGATAC,0.209 E-score
12,ACCACCAT,-0.124 E-score
13,GAAGCCTC,-0.261 E-score
14,ACAGCGTG,-0.0589 E-score
15,GCTATTGA,0.0987 E-score
16,GGGCGTCA,-0.338 E-score
17,ATGTGAAT,0.0895 E-score
18,TGGGTACA,-0.0229 E-score
19,AGAGTCTG,-0.16 E-score
20,ATAGGATG,0.0848 E-score
21,AGACTTGC,-0.0491 E-score
22,CACCGCAC,-0.2 E-score
23,ACTTTACA,0.171 E-score
24,AGGTCGTG,-0.126 E-score
25,CTAGATAC,0.22 E-score

row,Sequence,binding signal
1,CCCTCATC,-0.243 E-score
2,AATTGAGT,0.14 E-score
3,CGCCAGGC,-0.199 E-score
4,ACTCACGG,0.0232 E-score
5,GAGGCCCA,-0.289 E-score
6,GACCCACC,-0.11 E-score
7,ACGGTGAG,-0.0976 E-score
8,TAATCAGA,0.11 E-score
9,CGTTACAG,0.241 E-score
10,CTTTAAGA,-0.118 E-score
11,CAAACCAA,-0.0424 E-score
12,CCTTATTC,-0.0288 E-score
13,CTTAGCGA,-0.0842 E-score
14,AACGATAA,0.185 E-score
15,CACCTGGA,-0.185 E-score
16,GGTTTTAA,-0.14 E-score
17,CCGGGTCG,-0.28 E-score
18,AGCATGAG,0.0464 E-score
19,ATCGTGCA,0.0306 E-score
20,ATAGACAT,0.0125 E-score
21,GAAAACCA,-0.118 E-score
22,CGCCATGA,-0.187 E-score
23,AACGTACG,0.135 E-score
24,AAGGCACG,-0.111 E-score
25,TCAAACCA,-0.174 E-score

row,Sequence,binding signal
1,GGCGCATA,-0.0605 E-score
2,ACAACCAC,-0.0199 E-score
3,ATCGCCCC,-0.321 E-score
4,GCACGTAC,-0.0148 E-score
5,CGATCGGA,-0.038 E-score
6,ATTCAGAA,-0.0273 E-score
7,ACCCAGCA,-0.126 E-score
8,AGAAACAG,0.216 E-score
9,TCCGCCGA,-0.178 E-score
10,CACCATCC,-0.224 E-score
11,CGAATACC,0.0161 E-score
12,ATAAAGCC,-0.148 E-score
13,TACCTATA,0.37 E-score
14,GATAAGAC,0.119 E-score
15,GTCCGTTA,-0.0995 E-score
16,TACCGACA,0.223 E-score
17,AGTCCTAC,0.0424 E-score
18,ACTAATTA,0.438 E-score
19,AGTAGTGC,0.0725 E-score
20,ATTATCAG,0.232 E-score
21,GCACAACA,0.0536 E-score
22,GAGAACGC,0.0327 E-score
23,AATAATCG,0.045 E-score
24,CTTTTACC,0.12 E-score
25,GTTCAGGA,0.027 E-score

row,Sequence,binding signal
1,CGCATAGA,-0.069 E-score
2,CCGGGTCC,-0.279 E-score
3,AGGCTGAA,-0.255 E-score
4,GGCCTTGA,-0.327 E-score
5,ACTAAGTA,0.281 E-score
6,TCGCAGAA,-0.163 E-score
7,AAGTGTTA,0.148 E-score
8,CTACCGGC,-0.0205 E-score
9,CTGGTCCC,-0.277 E-score
10,CTAACGAC,-0.103 E-score
11,ACGTCTCT,-0.156 E-score
12,AATCGTCC,0.0103 E-score
13,ACGCTCGA,-0.142 E-score
14,AAGCAAAT,0.062 E-score
15,AGCCGCAT,-0.147 E-score
16,AGATACGG,-0.0193 E-score
17,AGGACCCG,-0.222 E-score
18,CGAATAGC,-0.144 E-score
19,GGTTGGGA,-0.1 E-score
20,TCGAGAAA,0.135 E-score
21,CCTTTATC,0.0298 E-score
22,ACTTGACC,-0.14 E-score
23,GCGAATAA,0.113 E-score
24,TCCCTAAA,-0.167 E-score
25,CATTTACA,0.308 E-score

row,Sequence,binding signal
1,CACTCGGC,-0.249 E-score
2,CAAAGTAG,0.148 E-score
3,GACCCATC,-0.147 E-score
4,ATCGACAC,0.0552 E-score
5,TAGTATCA,0.199 E-score
6,GGACAAGA,-0.158 E-score
7,ACTGAGTG,0.0531 E-score
8,GAGTCTGA,-0.0421 E-score
9,CACCCTCA,-0.147 E-score
10,CGACACAA,-0.18 E-score
11,CTGCAGAA,-0.0349 E-score
12,ACTAATCC,0.178 E-score
13,ACGGCACA,0.173 E-score
14,GGTAAATA,0.299 E-score
15,GACCCCAA,-0.366 E-score
16,CATAAAGA,0.0223 E-score
17,TTCGAGAA,0.0693 E-score
18,AGGATATA,0.287 E-score
19,CTCACTTA,-0.116 E-score
20,ATTAAGGC,-0.00296 E-score
21,GTGAAGAA,0.0156 E-score
22,AAAAGTCG,-0.0454 E-score
23,AATAAATC,0.233 E-score
24,CTAGCCAG,-0.0869 E-score
25,CATGAAGG,-0.159 E-score

row,Sequence,binding signal
1,AAGGAATG,-0.221 E-score
2,CTCGCATA,-0.0555 E-score
3,GCCATAAC,0.0281 E-score
4,GATGAAGC,-0.0121 E-score
5,GAACCTTC,-0.202 E-score
6,AACCGGTG,-0.223 E-score
7,ATCCCCTC,-0.361 E-score
8,CCGCTGGC,-0.251 E-score
9,AGCTACGA,0.163 E-score
10,ATTGTTTA,-0.087 E-score
11,ACGCAAAC,0.106 E-score
12,AATTACGT,0.303 E-score
13,CGGTTGAC,-0.154 E-score
14,AATCCGCC,-0.211 E-score
15,GGTCTGCA,-0.196 E-score
16,CTTTGCTA,0.163 E-score
17,CGCCGACG,-0.0281 E-score
18,AAGGCTGC,-0.224 E-score
19,ACATCGAT,0.166 E-score
20,AATTGGTA,0.339 E-score
21,CCAGGCCA,-0.255 E-score
22,AGCTAGTG,0.229 E-score

# Reference: PMC6212790
